In the assay the test system is Plasmodium falciparum. The assay can be described thus: Primary screen in NF54 nanoGlo assay, in single point, at 2uM, 72h; a lower Z score goes with more inhibition. It counts as functional, Erythrocyte. Conditions: timepoint 72 hour.

Results on 42 compounds are retold here after ChEMBL document CHEMBL4888484, “Replenishing the malaria drug discovery pipeline: Screening and hit evaluation of the MMV Hit Generation Library 1 (HGL1) against asexual blood stage Plasmodium falciparum ,using a nano luciferase reporter read-out” (2022).

One may read the % Inhibition as the change of the read-out against control, counted positive when it falls.

About 540 (0.36%) of roughly 150,000 compounds showed an effect of 50% or more. The list shows a part of the results.

Take `CC(C)(C)C(=O)Nc1ccccc1C(=O)NC[C@H]1CCOC1`: the “% Inhibition” value is listed as -11% and the Z score is recorded as 1.25.
On the same counts, the results for `C[C@H]1CCCN(C(=O)CCc2nc3ccccc3s2)C1` are -7% and 0.66.
For the compound `c1ccc2c(C3CCN(c4nccn5cnnc45)CC3)ccnc2c1`, the “% Inhibition” value is given as -14% and the Z score turned out to be 1.85.
The corresponding values for `CN(C)c1nccnc1N1CCC[C@@](CO)(CC2CC2)C1` are -19% and 1.9.
On to `Cc1nccc(OC2CCN(C(=O)NC(c3ccccc3)c3ccccc3)CC2)n1`, for which the “% Inhibition” value is 16% and the Z score was -2.47.
The corresponding values for `CCc1n[nH]c(C(=O)N2CC(C)(C)[C@@](C)(O)C2)c1C` are -4% and 0.66.
On the same counts, the results for `c1csc(CNCCn2cncn2)c1` are 12% and -1.23.
On the same counts, the results for `COc1ccc2c(c1)C(C)N1C(=O)c3ccccc3C1O2` (centres undefined) are -11% and 1.08.
`CCC[C@@]1(C)CCCN(C(=O)c2c[nH]c(C(=O)OC)c2)C1`: the “% Inhibition” value is -17% and the Z score is listed as 2.6.
The corresponding values for `Cc1nc(C)c(C(=O)N[C@@H](Cn2nccn2)C(C)C)s1` are -1% and 0.1.
On the same counts, the results for `CN(C)[C@H](C#N)c1cccc(Br)c1` are 6% and -0.79.
On the same counts, the results for `CC(C)Oc1ccccc1C(=O)Nc1cccc(CN2CCOCC2)n1` are -15% and 2.42.
In the case of `Cc1cc(S(C)(=O)=O)cc(C(=O)N2CCOC[C@@H]2CC(F)F)c1C`, the “% Inhibition” value is listed as -28% and the Z score is listed as 3.32.
On the same counts, the results for `CCCC(=O)N(CC(=O)N(Cc1ccco1)CC1CCCO1)C(C)CC` (centres undefined) are -7% and 0.97.
Regarding `CC1(C)CNC(=O)CN1C(=O)[C@H]1C[C@@H]1C1CCOCC1`, the “% Inhibition” value was -12% and the Z score was 1.26.
On the same counts, the results for `Cc1ccc(S(=O)(=O)NC[C@H]2COC3(CCCC3)O2)cc1C` are -2% and 0.37.
On the same counts, the results for `Cc1n[nH]c(C)c1S(=O)(=O)N1CCC(c2cc(C(=O)Nc3ccccc3F)[nH]n2)CC1` are 3% and -0.44.
The corresponding values for `O=C(NCCNC1CC1)c1c(F)c(F)cc(F)c1F` are 6% and -0.9.
As for `C[C@@H]1CN(C(=O)Cc2cccc(Br)c2)CCN1`, the “% Inhibition” value is on record as -3% and the Z score came to 0.46.
Regarding `CC[C@H](NC(=O)NCCNC(=O)C1CCCC1)c1nc(C)cs1`, the “% Inhibition” value is given as -3% and the Z score worked out at 0.43.
The corresponding values for `Cc1ccoc1CN(C)C(=O)c1cc(CC(C)C)c[nH]1` are -1% and 0.15.
On the same counts, the results for `Cc1ccoc1C(=O)Nc1ncc(Cc2cc(Cl)ccc2C(F)(F)F)s1` are -37% and 4.35.
On the same counts, the results for `CCc1nnc2sc(-c3cnccn3)nn12` are -2% and 0.38.
As for `C[C@@H](C(=O)N(C)C1CCCCC1)N1CCOCC1`, the “% Inhibition” value was -12% and the Z score is 1.22.
On to `CC(C)[C@@]12C[C@@H]1[C@@H](C)c1nc(N)c(C#N)c(-c3ccc(S(C)(=O)=O)cc3)c12`, for which the “% Inhibition” value was -2% and the Z score came to 0.26.
As for `CC(=O)c1ccc(NC(=O)c2cccn2-c2cccnc2)cc1`, the “% Inhibition” value came out at 0% and the Z score is reported as 0.04.
On the same counts, the results for `Cc1ccc(Cc2nnc(NS(=O)(=O)c3cccnc3)s2)cc1` are -7% and 0.82.
On the same counts, the results for `Cc1ccc(-c2c(C)nn3c2NC(=O)CCC3=O)cc1S(=O)(=O)NC1CCCC1` are 5% and -0.59.
As for `COc1ccc(C(=O)NCC2(C)CC(NC(=O)c3ccc(OC)c(OC)c3)CC(C)(C)C2)cc1OC` (centres undefined), the “% Inhibition” value is -4% and the Z score is 0.66.
On the same counts, the results for `O=C(Cc1cn2ccsc2n1)N1CCS(=O)(=O)C[C@H]1C1CC1` are -8% and 1.31.
The corresponding values for `COCC(=O)N1CC(Cc2nc(-c3cccnc3)no2)C1` are -13% and 1.77.
The corresponding values for `O=C1CCCN1CC1CCN(C(=O)c2c[nH]c(=O)c(Cl)c2)CC1` are 1% and -0.23.
Take `O=C(c1noc2c1CCCC2)N1CCc2sc(Cl)cc2C1`: the “% Inhibition” value was -22% and the Z score amounted to 2.52.
On the same counts, the results for `CCC[C@H]1CN(c2nccc(Oc3cccc(C#N)c3)n2)CCN1` are -14% and 1.45.
Consider `CC[C@H]1COCCN1C(=O)Cn1nc(C)ccc1=O`, for which the “% Inhibition” value is given as -1% and the Z score is given as 0.1.
On the same counts, the results for `O=C(C[C@H]1CCCCO1)Nc1cncnc1-n1cccn1` are -5% and 0.79.
On the same counts, the results for `CC(=O)N1CCN(c2ccc(-c3nc(-c4ccccc4F)no3)cn2)CC1` are 16% and -2.46.
The corresponding values for `O=C(NCC1CCCN2CCCCC12)c1cc(-c2cccnc2)[nH]n1` (centres undefined) are 9% and -1.47.
As for `CC(C)Cn1ccnc1NC(=O)c1cc2c([nH]1)CCOC2`, the “% Inhibition” value is -2% and the Z score turned out to be 0.31.
On the same counts, the results for `Cc1ncc(-c2nc3c(cnn3C)[nH]2)n1C` are -3% and 0.38.
Regarding `O=C(c1ccc2nccn2c1)N1CCCC[C@@H]1CO`, the “% Inhibition” value is on record as -7% and the Z score is given as 0.95.
The corresponding values for `COc1ccnc(C(=O)N2CCN(C)Cc3ccccc32)c1` are -18% and 2.2.
